# From the supplement of paper PMC9174493
# Some of the results follow. Single values of this set are uncertain. Values with irradiation are relative to irradiated vehicle.
# Columns and labels:
# [1] = test system: A549-Dual; assay: NF-kB reporter (SEAP) activity, viability-corrected, relative to vehicle (fold change vs vehicle); higher = more activation of STING-IRF / NF-kB immune response reporter; conditions: 10 µM
# [2] = test system: A549-Dual; assay: ISRE reporter (Lucia luciferase) activity, viability-corrected, relative to vehicle (fold change vs vehicle); higher = more activation of STING-IRF / NF-kB immune response reporter; conditions: 10 µM
# 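Wherever NF-kB reporter (SEAP) activity, viability-corrected, relative to vehicle is given: viability correction based on the alamar blue assay, with concentrations leaving 10% survival or less dropped.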
SMILES,NF-kB reporter ([1]; irradiation: 8 Gy/4 fr),NF-kB reporter ([1]; irradiation: none),ISRE reporter ([2]; irradiation: 8 Gy/4 fr),ISRE reporter ([2]; irradiation: none)
CN(C)Cc1c[nH]c2ccccc12 [Gramine],0.643,0.507,0.642,0.515
CNC(C)Cc1ccccc1OC.Cl (configuration not stated) [Methoxyphenamine Hydrochloride],0.738,1.12,1.01,0.931
O=[N+]([O-])OC1COC2C(O)COC12 (configuration not stated) [Isosorbide Mononitrate],0.919,0.866,0.827,1.02
O=C(CS(=O)C(c1ccccc1)c1ccccc1)NO (configuration not stated) [Adrafinil],0.674,1.27,0.649,0.647
CCNCC.O=C(O)Cc1ccccc1Nc1c(Cl)cccc1Cl [Diclofenac Diethylamine],0.401,0.652,0.45,0.749
CC(=O)OC1CN2CCC1CC2.Cl (configuration not stated) [Aceclidine HCl],0.731,0.81,0.617,0.508
COc1ccc(CN2CCNCC2)c(OC)c1OC [Trimetazidine],0.797,0.823,0.704,0.775
CC(Cc1ccc(O)cc1)NCC(O)c1cc(O)cc(O)c1 (configuration not stated) [Fenoterol],0.9,1.06,0.827,0.787
Cl.NC1CC1c1ccccc1 (configuration not stated) [Tranylcypromine (2-PCPA) HCl],0.871,1.22,0.698,0.687
CCOC(=O)Nc1ccc(NCc2ccc(F)cc2)cc1N.Cl.Cl [Retigabine 2HCl],0.719,0.527,0.691,0.712
O=P([O-])(O)C(Cl)(Cl)P(=O)([O-])O.[Na+].[Na+] [Clodronate Disodium],0.775,0.881,0.885,0.82
CNC1CC(N)C(O)C(OC2OC(CO)C(O)C3OC4(OC(C(N)CO)C(O)C(O)C4O)OC23)C1O (configuration not stated) [Hygromycin B],0.855,0.959,1.01,1.22
CCCCCc1cc(O)cc(O)c1 [Olivetol],1.03,1.21,0.766,0.895
N#C[S][Na] [Sodium Thiocyanate],0.997,0.753,0.929,0.647
O=c1cccc2n1CC1CNCC2C1 (configuration not stated) [Cytisine],0.539,0.909,0.474,0.488
CN(C)NC(=O)CCC(=O)O [Daminozide],1.31,0.9,1.15,0.635
Cc1ccccc1-n1c(CF)nc2ccc(N)cc2c1=O [Afloqualone],0.593,0.673,0.287,0.229
CC(=O)C1CCC2C3CCC4CC(O)CCC4(C)C3CCC12C (configuration not stated) [Allopregnanolone],0.514,0.768,0.46,0.626
CN[C@@H]1[C@@H](O)[C@@H](O[C@@H]2[C@@H](O)[C@H](O[C@H]3O[C@H](CN)CC[C@H]3N)[C@@H](N)C[C@H]2N)OC[C@]1(C)O.CN[C@@H]1[C@@H](O)[C@@H](O[C@@H]2[C@@H](O)[C@H](O[C@H]3O[C@H]([C@@H](C)N)CC[C@H]3N)[C@@H](N)C[C@H]2N)OC[C@]1(C)O.CN[C@@H]1[C@@H](O)[C@@H](O[C@@H]2[C@@H](O)[C@H](O[C@H]3O[C@H]([C@@H](C)NC)CC[C@H]3N)[C@@H](N)C[C@H]2N)OC[C@]1(C)O [Gentamicin Sulfate],1.01,1.42,0.917,1.47
COc1c(C)c(O)cc2[o+]c(-c3ccccc3)ccc12.[O-][Cl+3]([O-])([O-])[O-] [Dracohodin perochlorate],0.494,0.689,0.171,0.234
CCC1CN2CCC1CC2C(O)c1ccnc2ccc(OC)cc12 (configuration not stated) [Hydroquinidine],0.712,1.16,0.733,0.839
COc1cc2c(cc1OC)C1CC(=O)C(CC(C)C)CN1CC2 (configuration not stated) [Tetrabenazine (Xenazine)],0.889,0.966,0.993,0.9
NC(=O)CN1CCCC1=O [Piracetam],0.486,1.05,0.535,0.964
C=CC1CN2CCC1CC2C(O)c1ccnc2ccccc12 (configuration not stated) [Cinchonidine],0.869,0.537,0.961,0.756
C#CC1(O)C=CC2C3CCC4=CC(=O)CCC4C3CCC21CC (configuration not stated) [Gestodene],0.57,0.931,0.332,0.534
CN(C)C1C(O)=C(C(N)=O)C(=O)C2(O)C(=O)C3=C(O)c4c(O)cccc4C(C)(O)C3C(O)C12 (configuration not stated) [Oxytetracycline (Terramycin)],0.579,1.19,0.67,0.977
CC12CCC3C(CCC4CC(O)CCC43C)C1CCC2=O (configuration not stated) [Androsterone],1.02,0.916,1.08,0.631

SMILES,NF-kB reporter ([1]; irradiation: 8 Gy/4 fr),NF-kB reporter ([1]; irradiation: none),ISRE reporter ([2]; irradiation: 8 Gy/4 fr),ISRE reporter ([2]; irradiation: none)
COc1ccc2c(c1)[nH]c1c(C)nccc12.Cl [Harmine hydrochloride],2.03,4.23,0.468,2.3
COc1ccc2[nH]cc(CCN)c2c1 [5-Methoxytryptamine],0.739,1.07,0.607,0.745
Cc1ncc(CNC(=O)N(CCCl)N=O)c(N)n1.Cl [Nimustine Hydrochloride],0.487,0.591,0.566,0.652
CN1c2ccccc2C(NCCCCCCC(=O)[O-])c2ccc(Cl)cc2S1(=O)=O.[Na+] (configuration not stated) [Tianeptine sodium],0.635,0.773,0.7,0.71
CN1C2CCC1CC(OC(=O)C(CO)c1ccccc1)C2.CN1C2CCC1CC(OC(=O)C(CO)c1ccccc1)C2.O=S(=O)(O)O (configuration not stated) [Atropine sulfate],0.79,0.833,0.759,0.588
CN1C(=O)CCS(=O)(=O)C1c1ccc(Cl)cc1 (configuration not stated) [Chlormezanone],0.614,1.08,0.822,0.954
COc1ccc2c3c([nH]c2c1)C(C)=NCC3 [Harmaline],0.721,1.13,0.458,0.643
CC(C)OC(=O)C(C)NP(=O)(COC(C)Cn1cnc2c(N)ncnc21)Oc1ccccc1 (configuration not stated) [Tenofovir Alafenamide (GS-7340)],0.707,0.86,0.669,1.1
CCCCCCCCC(=O)NCc1ccc(O)c(OC)c1 [Nonivamide],0.973,0.861,0.831,0.867
CC12C=CC(=O)C=C1CCC1C2CCC2(C)C(O)CCC12 (configuration not stated) [Boldenone],0.877,0.836,0.904,0.654
CCCCCCC(=O)OC1CCC2C3CCC4=CC(=O)CCC4(C)C3CCC12C (configuration not stated) [Testosterone Enanthate],0.78,0.864,0.728,0.711
NCCc1ccc(O)cc1 [Tyramine],0.461,0.713,0.545,0.808
C[N+]12CCC(CC1)C(OC(=O)C(O)(c1ccccc1)c1ccccc1)C2.[Br-] (configuration not stated) [Clidinium Bromide],0.897,1.44,0.656,0.725
Br.COc1ccc2c(c1)C13CCCCC1C(C2)N(C)CC3.O (configuration not stated) [Dextromethorphan hydrobromide hydrate],0.743,1.14,0.763,0.663
C=CCC1(O)CCC2C3CCC4=CC(=O)CCC4=C3C=CC21C (configuration not stated) [Altrenogest],0.531,0.993,0.28,0.485
CCC(C(N)=O)N1CCCC1=O (configuration not stated) [Levetiracetam],0.709,0.853,0.752,0.863
CCC1CN2CCC1CC2C(O)c1ccnc2ccc(OC)cc12 (configuration not stated) [Hydroquinine],1.25,0.927,1.35,0.864
C#CC1(O)CCC2C3CCC4=CC(=O)CCC4(C)C3CCC21C (configuration not stated) [Ethisterone],0.716,0.587,0.652,0.441
COc1cc(C2c3cc4c(cc3C(O)C3COC(=O)C23)OCO4)cc(OC)c1OC (configuration not stated) [Picropodophyllin (PPP)],0.911,1.86,0.0828,0.459
COc1ccc(C(CN(C)C)C2(O)CCCCC2)cc1 (configuration not stated) [Venlafaxine],0.806,1.33,0.736,0.664
CNC1C(O)C(OC2C(N)CC(N)C(OC3OC(C(C)O)C(O)C(O)C3N)C2O)OCC1(C)O.O=S(=O)(O)O.O=S(=O)(O)O (configuration not stated) [Geneticin (G418 Sulfate)],0.747,0.838,0.722,1.04
Nc1ccncc1 [4-Aminopyridine],0.821,0.975,0.805,0.755
CCN(C)C(=O)Oc1cccc(C(C)N(C)C)c1 (configuration not stated) [Rivastigmine],0.754,1.47,0.706,0.725
Cc1cccc(Cc2c[nH]cn2)c1C.Cl [Detomidine HCl],0.676,1.05,0.671,0.771
Br.COC(=O)C1=CCCN(C)C1 [Arecoline HBr],0.768,1.12,0.64,0.96
CN(CC(=O)O)C(=N)NP(=O)([O-])[O-].[Na+].[Na+] [Creatine phosphate disodium salt],1.06,0.853,1.04,0.818
